The chains are these.
B1: CPEB3 Ribozyme (parent)
chain: UAACAGGGGGCCACAGCAGAAGCGUUCACGUCGCAGCCCCUGUCAGAUUCUGGUGAAUCUGCGAAUUCUGCUGUAUAUCUC

The source gives no read counts; variants with many changes may rest on few reads.

This data set covers variants of B1. The data set is described as follows: self-cleavage, relative activity (ratio to wild type); higher = more cleavage; in vitro, sequencing. Summed up:
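After error-prone PCR and barcoding, CPEB3 ribozyme mutant libraries were transcribed with T7 RNA polymerase at 37°C for 5 hours, then given 15 min with DNase I before an EDTA stop, and they cleaved during both steps. Reverse transcription with template switching preceded Illumina sequencing. Relative activity divides a variant's cleaved/total read fraction by the unmutated ribozyme's. At least 5 reads were required per variant, and three batches were averaged.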
In the case of U25C U31C U51A C79A, the self-cleavage was 0.13. Take U25C U31C A56G U74C A75U: the self-cleavage turned out to be 0.15. Then U25C U41A U48C, with 0.37; and U25C C40A U60A U66C, with 0.13. As to U25C U26C C59U U76C, the self-cleavage worked out at 0.2. Then U25C C40U U66A, with 0.11; and U25C C40U U66C, with 0.27; and U25G U43C A45G A47U U58A, with 0.16. Then U26A A35G A45G G70A, with 0.86; and U25C C38U U69C, with 0.1. Consider U25C U26C U41A A45G, for which the self-cleavage was 0.2. Then U25C A28U C40A U58C, with 0.14; and U25C U26G U51A, with 0.36; and U26A A28G C40A U74G, with 0.22. As for U25C U51C U78C, the self-cleavage is 0.3. For the variant U25C A28U U78C, the self-cleavage came out at 0.14. Then U25C C32A U41A U51A A64U, with 0.16; and U25C G36A A56G, with 0.2. Turning to U25C U43C U48C U80A, the self-cleavage was 0.11. Then U25C U54A A57C U58A U60A U72G, with 0.06; and U25C C29G U31C G52A U80C, with 0.14; and U25C A57U G63U U67C U80C, with 0.04. Consider U26A A35G U58A U69C, for which the self-cleavage amounted to 0.33.

Regarding U25C A35G C38A U49C U66C, the self-cleavage was determined as 0.21. In the case of U25C U26C A28G, the self-cleavage came to 0.35. For the variant U25C A35U U60A C79G, the self-cleavage is 0.13. As for U25C A47U U69C, the self-cleavage amounted to 0.46. Turning to U25C A47G G61U G70A U74A, the self-cleavage was determined as 0.1. Next, U25C A57G U66C: 0.15. Next, U25C A35U A47G: 0.16; U25C U43A U51G U66C: 0.22; U25C U41A U60C G73A U80A: 0.14.

U25A U51A U54A: the self-cleavage was determined as 0.33. As for U25C A47G U72C U76C, the self-cleavage was 0.21. On to U25C U41C A45G A56G A64U, for which the self-cleavage came out at 0.14. Then U25C A45G A47G, with 0.1; and U25C U43C A64G A65U U72C, with 0.19. Then U25C C40U A64G, with 0.37; and U25C C39U A45C, with 0.25. In the case of U26A U31C U54G G61U A64U U69C G73A, the self-cleavage is 0.11. Then U25C A28U U31C A35G, with 0.16; and U25C A28G A47G, with 0.21; and U25C A35G U51G A64G U76A, with 0.14. Next, U26A U51C U80C: 0.56. Next, U25C A28G C38U U41C: 0.64; U25C C39A A47G: 0.27; U25C U41C G55U U58C U80A: 0.08. As for U25G A28U U31C A45G U48A U76C U78C, the self-cleavage came out at 0.13. Then U25C U26A A45C U48C U60A U72A, with 0.15; and U25C U69C U72C U80C, with 0.08.

Take U25G C37U U67C: the self-cleavage was determined as 0.08. As for U26A U43A U60C, the self-cleavage stood at 0.29. Regarding U26A A64G U74A, the self-cleavage came to 1.11.

On to U25C G30A U67C, for which the self-cleavage was found to be 0.13. Take U25C U41A G46U A57G: the self-cleavage stood at 0.22.

For the variant U25C C38G U43C U51G U76C, the self-cleavage stood at 0.05. For U25C U43A A65G, the self-cleavage was determined as 0.16. On to U26A A45G U69G, for which the self-cleavage worked out at 0.26. As to U25C U31A U43C A64U, the self-cleavage was 0.11.

For the variant U25C U51A U54C, the self-cleavage was determined as 0.17.

With U26A C50A U69A, the self-cleavage amounted to 0.33. Then U25C U41A C50U A56G, with 0.15. Next, U25C A35G U41C A65G U72C U76C U80C: 0.14; U26A A75C A77U: 1.16; U25C A28U A56U U58C: 0.19. As to U26A U43C U51A, the self-cleavage came to 0.38. Consider U25C C39U A45C U80C, for which the self-cleavage came out at 0.28.

U25C A77U C79A: the self-cleavage came out at 0.1. In the case of U25G U26C A35G U48A C62A, the self-cleavage was 0.07. As for U25C U43C A57U, the self-cleavage turned out to be 0.21. Take U26A G33A C40U U54G U80C: the self-cleavage was found to be 0.09. Then U25G U51C C68U U78C, with 0.33. Next, U25C U58G G61A A64G U74C: 0.16. Then U25C A28G U31C U72A U78C, with 0.04. As for U25C U26C U43A A65U U69C U76C, the self-cleavage was found to be 0.12. On to U25C U51C U66C U69A, for which the self-cleavage is 0.16. Take U25C U26C G33A U72A: the self-cleavage worked out at 0.17.

In the case of U25C G42A U43C U76C, the self-cleavage came to 0.19. Then U26A A75G U80C, with 0.61; and U25G U41A U54C A65G U78C, with 0.03. For the variant U26A A28G U54C A56U A64G, the self-cleavage was 0.09. Next, U26A U31C U58C U60A: 0.44; U25C C32U A57C: 0.12. Next, U26A A47G C71U: 0.41.

The values are drawn from the RNAGym collection of RNA variant scans (doi:10.1093/nar/gkz1192).
